# The whole screen tested about 320,000 compounds, of which about 7,600 (2.4%) were called active. Inconclusive results, whose numbers are uncertain, are shown with a selection of clear calls. Calls follow the shape of the dose curve; as a rule, active = well fitted activation curve with a large enough effect; inconclusive = small, poorly fitted or top-dose-only effect; inactive = no such curve, though single readings can be large or run the other way. No potency is given beside an inconclusive call; the fits are too rough.
# Test: qHTS Assay for NPC1 Promoter Activators; also: nearly all actives have a fitted effect of over 60% in size
# Settings: Huh7 NPC1 promoter luciferase reporter, 24 h; series mostly up to 9.22 µM
# How it was run: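 Luminescence from an NPC1 promoter-driven luciferase reporter in stably transfected Huh7 cells was measured after 24 h compound treatment at 37 °C, followed by 10 min ambient incubation with luciferase detection reagent.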
# Potency is read from the fitted curve at half-maximal effect; tags tell the direction and shape of the fitted curve.
row,Structure (SMILES),Potency
1,CC(=O)c1cccc(NC(=S)NC(=O)c2ccccc2)c1,"inconclusive [activator, single point]"
2,Cc1ccc2cc3cc(C(=O)N4CCCCCC4)oc3nc2c1,active: 1.12 µM
3,Cc1ccc(C(=O)N/C(=C\c2ccc(-c3cc(Cl)ccc3Cl)o2)C(=O)NCc2cccnc2)cc1,"inconclusive [activator, partial curve]"
4,CN(C)S(=O)(=O)c1cccc(NC(=O)CSc2nc3ccccc3[nH]2)c1,inactive
5,Cn1nc(-c2ccccc2)nc1-c1ccccc1,"inconclusive [activator, single point]"
6,COc1ccc(C(=O)O/N=C(\N)c2ccc(Br)cc2)cc1,"inconclusive [activator, partial curve]"
7,O=C(Nc1ccc2oc(=O)ccc2c1)c1ccc2ccccc2c1,"inconclusive [activator, single point]"
8,C(#Cc1ccccc1)Cn1nnc2ccccc21,"inconclusive [activator, single point]"
9,CC1CCC/C(=C\Nc2ccc3c(c2)OCO3)C1=O (centres undefined),"inconclusive [activator, partial curve]"
10,CCc1nnc(NC(=O)CSc2ccc(-c3nc4ccccc4[nH]3)cn2)s1,"inconclusive [activator, partial curve]"
11,CCCC(=O)Nc1ccc2oc(-c3ccc(OC)c(Br)c3)nc2c1,"inconclusive [activator, partial curve]"
12,COc1ccc(/C=C/C(=O)NC(C)CCc2ccccc2)cc1OC (centres undefined),inactive
13,O=C(Nc1ccc2nccnc2c1)c1ccco1,"inconclusive [activator, partial curve]"
14,CC1CCN(C(=O)CSc2nc3ccccc3[nH]2)CC1,active: 2.51 µM
15,S=c1[nH]c(-c2ccccc2)cn1/N=C/c1ccncc1,"inconclusive [activator, partial curve]"
16,CNC(=O)CSc1nnc(-c2ccco2)n1-c1ccccc1OC,"inconclusive [activator, single point]"
17,c1ccc(OCc2nnc(-c3ccccc3)o2)cc1,"inconclusive [activator, partial curve]"
18,COc1ccc2oc(=O)c(-c3cn4ccc(C)cc4n3)cc2c1,"inconclusive [activator, single point]"
19,CC1CCc2nc(NC(=O)C3COc4ccccc4O3)sc2C1 (centres undefined),"inconclusive [activator, partial curve]"
20,O=C(Nc1ccc(Oc2cccc3ccccc23)cc1)c1ccco1,inactive
21,CCCCSc1ncc(C(=O)OCC)c(N)n1,"inconclusive [activator, single point]"
22,O=C(COc1ccccc1[N+](=O)[O-])Nc1ccc(Br)cc1,"inconclusive [activator, single point]"
23,O=C(Nc1cccnc1)c1cc(-c2ccc(Cl)cc2Cl)on1,active: 3.98 µM
24,C/C(=N\Nc1nncc2ccccc12)c1ccc(C(C)(C)C)cc1,"inconclusive [activator, partial curve]"
25,OCCNc1nc(Nc2cccc(O)c2)nc2ccccc12,inactive

row,Structure (SMILES),Potency
1,CCOC(=O)C(=CN=C(N)Nc1nc2ccccc2o1)C(=O)OCC,"inconclusive [activator, single point]"
2,O=C(N[C@@H](Cc1c[nH]c2ccccc12)C(=O)NC1CC1)c1ccccc1Cl,"inconclusive [activator, single point]"
3,Cc1nnc(NC(=O)c2ccc(Br)cc2)s1,"inconclusive [activator, partial curve]"
4,CCOC(=O)/C(C#N)=N\Nc1cc(Cl)ccc1OC,inactive
5,CCOc1ccc(N=c2oc3cc(O)ccc3cc2C(=O)NCC2CCCO2)cc1 (centres undefined),inactive
6,Nc1nc(Nc2ccccc2)sc1C(=O)c1ccccc1,active: 2.51 µM
7,Cc1occc1C(=O)N/N=C/c1cccs1,"inconclusive [activator, single point]"
8,Cc1c(CN(C)C)c2c(n1C)C(=O)c1ccc(Br)cc1-2,"inconclusive [activator, partial curve]"
9,Cc1ccc2c(c1)sc(=NC(=O)C1CC1)n2C,active: 2.51 µM
10,CCOc1ccc(C(=O)Nc2nnc(SCC(=O)NCC3CCCO3)s2)cc1 (centres undefined),active: 0.1 µM
11,COc1ccc(CN2CCNC(=O)C2CC(=O)N(C)C2CCOCC2)c(F)c1 (centres undefined),inactive
12,O=C(NCCOc1ccccc1)c1ccccc1SCC(=O)N1CCCC1,inactive
13,CCOc1ccc(-c2cc(C(=O)O)c3ccccc3n2)cc1,"inconclusive [activator, partial curve]"
14,Cc1c(C(=O)C(=O)N2CC=C(c3ccccc3)CC2)c2ccccc2n1C,inactive
15,O=C(Nc1ccc2c(c1)OCCO2)C1CC1c1ccccc1 (centres undefined),"inconclusive [activator, partial curve]"
16,CCn1cc([N+](=O)[O-])c(C(=O)NCc2ccc3c(c2)OCO3)n1,inactive
17,C=CCn1cccc(C(=O)Nc2ccc(F)cc2)c1=O,"inconclusive [activator, partial curve]"
18,COc1n[nH]c(C(=O)Nc2nc3ccccc3s2)c1[N+](=O)[O-],"inconclusive [activator, single point]"
19,CCN(C(=O)c1ccc2c(Cl)c3c(nc2c1)CCC3)c1cccc(C)c1,"inconclusive [activator, partial curve]"
20,CC(=O)Nc1nnc(-c2ccc3c(c2)CCCC3)o1,"inconclusive [activator, partial curve]"
21,CCN(CC)c1ccc(C(=O)n2cnc3ccccc32)cc1,"inconclusive [activator, partial curve]"
22,Clc1ccccc1-c1nc(-c2ccccc2)n[nH]1,active: 3.16 µM
23,Cc1nc(-c2ccccc2)sc1C(=O)O,inactive
24,O=C(O)c1ccc(-c2nc3ccccc3s2)o1,"inconclusive [activator, full curve]"

# From PubChem BioAssay AID485313 (National Center for Advancing Translational Sciences (NCATS), 2010)
